Assay results as given in US8722849B2, “Polypeptides” (Novo Nordisk A/S, priority 2011, dated 2014).
At least one read-out could not be matched to a standard name with certainty. Starred links: 1 amine or outer side, 2 acyl side, 3 side chain; linkers in the order of their positions; H or OH if unused. Positions of bridges follow the written chain, without caps; N, C: chain ends. Residues, ends and D or L forms follow the SMILES beside them. *: point of attachment. C20 diacid = O=C(O)CCCCCCCCCCCCCCCCCCC(=O)*; C18 diacid = O=C(O)CCCCCCCCCCCCCCCCC(=O)*; γGlu = O=C(O)[C@H](CCC(=O)[*:2])N[*:1]

assay: Assay (III) ThT fibrillation assay for physical stability; assay type: physicochemical; conditions: ThT fibrillation assay
Text: ASSAY (III)—ThT Fibrillation Assays for the Assessment of Physical Stability of Protein formulations Low physical stability of a polypeptide may lead to amyloid fibril formation, which is observed as well-ordered, thread-like macromolecular structures in the sample eventually resulting in gel formation. This has traditionally been measured by visual inspection of the sample. However, that kind of measurement is very subjective and depending on the observer. Therefore, the application of a small molecule indicator probe is much more advantageous. Thioflavin T (ThT) is such a probe and has a distinct fluorescence signature when binding to fibrils [Naiki et al. (1989) Anal. Biochem. 177, 244-249; LeVine (1999) Methods. Enzymol. […], 274-284]. The time course for fibril formation can be described by a sigmoidal curve with the following expression [Nielsen et al. (2001) Biochemistry 40, 6036-6046]: [formula] Here, F is the ThT fluorescence at the time t. The constant t0 is the time needed to reach 50% of maximum fluorescence. […] Few of those intermediates nucleate to form a template onto which further intermediates may assembly and the fibrillation proceeds. The lag-time corresponds to the interval in which the critical mass of nucleus is built up and the apparent rate constant is the rate with which the fibril itself is formed. Sample Preparation Samples were prepared freshly before each assay. Each sample composition is described in each example. The pH of the sample was adjusted to the desired value using appropriate amounts of concentrated NaOH and HClO4 or HCl. Thioflavin T was added to the samples from a stock solution in H2O to a final concentration of 1 μM. Sample aliquots of 200 μl were placed in a 96 well microtiter plate (Packard OptiPlate™-96, white polystyrene). Usually, four or eight replica of each sample (corresponding to one test condition) were placed in one column of wells. The plate was sealed with Scotch Pad (Qiagen). Incubation and Fluorescence Measurement Incubation at given temperature, shaking and measurement of the ThT fluorescence emission were done in a Fluoroskan Ascent FL fluorescence platereader or Varioskan platereader (Thermo Labsystems). The temperature was adjusted to 37° C. The orbital shaking was adjusted to 960 rpm with an amplitude of 1 mm in all the presented data. Fluorescence measurement was done using excitation through a 444 nm filter and measurement of emission through a 485 nm filter. Each run was initiated by incubating the plate at the assay temperature for 10 min. The plate was measured every 20 minutes for a desired period of time. Between each measurement, the plate was shaken and heated as described. Data Handling The measurement points were saved in Microsoft Excel format for further processing and curve drawing and fitting was performed using GraphPad Prism. The background emission from ThT in the absence of fibrils was negligible. The data points are typically a mean of four or eight samples and shown with standard deviation error bars. Only data obtained in the same experiment (i.e. samples on the same plate) are presented in the same graph ensuring a relative measure of fibrillation between experiments. The data set may be fitted to Eq. (1). However, since full sigmodial curves in this case are not always achieved during the measurement time, the degree of fibrillation is expressed as ThT fluorescence tabulated as the mean of the samples and shown with the standard deviation at various time points. Measurement of Initial and Final Concentrations The polypeptide concentration in each of the tested formulations were measured both before application in the ThT fibrillation assay (“Initial”) and after completion of the ThT fibrillation (“After ThT assay”). Concentrations were determined by reverse HPLC methods using a pramlintide standard as a reference. Before measurement after completion 150 μl was collected from each of the replica and transferred to an Eppendorf tube. […]

Row | SMILES | ThT pH 4.0 recovery [%] | ThT pH 4.0 recovery (%)
1 | CC[C@H](C)[C@H](NC(=O)[C@@H]1CCCN1C(=O)CNC(=O)[C@H](Cc1ccccc1)NC(=O)[C@H](CC(N)=O)NC(=O)[C@H](CC(N)=O)NC(=O)[C@H](CO)NC(=O)[C@H](CO)NC(=O)[C@H](Cc1c[nH]cn1)NC(=O)[C@H](Cc1c[nH]cn1)NC(=O)[C@H](CC(C)C)NC(=O)[C@H](Cc1ccccc1)NC(=O)[C@H](CCC(=O)O)NC(=O)[C@H](C)NC(=O)[C@H](CC(C)C)NC(=O)[C@H](CCCNC(=N)N)NC(=O)[C@H](CCC(N)=O)NC(=O)[C@@H](NC(=O)[C@H](C)NC(=O)[C@@H]1CSSC[C@H](NC(=O)CNC(=O)CC[C@H](NC(=O)CCCCCCCCCCCCCCCCCCC(=O)O)C(=O)O)C(=O)N[C@@H](CC(N)=O)C(=O)N[C@@H]([C@@H](C)O)C(=O)N[C@@H](C)C(=O)N[C@@H]([C@@H](C)O)C(=O)N1)[C@@H](C)O)C(=O)N[C@@H](CC(C)C)C(=O)N1CCC[C@H]1C(=O)N1CCC[C@H]1C(=O)N[C@H](C(=O)N[C@@H](CC(N)=O)C(=O)N[C@H](C(=O)NCC(=O)N[C@@H](CO)C(=O)N[C@@H](Cc1c[nH]cn1)C(=O)N[C@H](C(=O)N[C@@H](Cc1ccc(O)cc1)C(N)=O)[C@@H](C)O)C(C)C)[C@@H](C)O [Example 105, N-alpha-[(S)-4-Carboxy-4-(19-carboxynonadecanoylamino)butyryl]-[Gly1,Glu14,His17,His35]-pramlintide] ({C20 diacid-γGlu}-GCNTATCATQRLAEFLHHSSNNFGPILPPTNVGSHTY-NH2; disulfide 2-7 (inferred); C-terminus assumed) | 48 | 48
2 | CC[C@H](C)[C@H](NC(=O)[C@@H]1CCCN1C(=O)CNC(=O)[C@H](Cc1ccccc1)NC(=O)[C@H](CC(N)=O)NC(=O)[C@H](CC(N)=O)NC(=O)[C@H](CO)NC(=O)[C@H](CO)NC(=O)[C@H](Cc1c[nH]cn1)NC(=O)[C@H](Cc1c[nH]cn1)NC(=O)[C@H](CC(C)C)NC(=O)[C@H](Cc1ccccc1)NC(=O)[C@H](CCC(=O)O)NC(=O)[C@H](C)NC(=O)[C@H](CC(C)C)NC(=O)[C@H](CCCNC(=N)N)NC(=O)[C@H](CCC(N)=O)NC(=O)[C@@H](NC(=O)[C@H](C)NC(=O)[C@@H]1CSSC[C@H](NC(=O)[C@H](CCCCN)NC(=O)CC[C@H](NC(=O)CCCCCCCCCCCCCCCCC(=O)O)C(=O)O)C(=O)N[C@@H](CC(N)=O)C(=O)N[C@@H]([C@@H](C)O)C(=O)N[C@@H](C)C(=O)N[C@@H]([C@@H](C)O)C(=O)N1)[C@@H](C)O)C(=O)N[C@@H](CC(C)C)C(=O)N1CCC[C@H]1C(=O)N1CCC[C@H]1C(=O)N[C@H](C(=O)N[C@@H](CC(N)=O)C(=O)N[C@H](C(=O)NCC(=O)N[C@@H](CO)C(=O)N[C@@H](CC(N)=O)C(=O)N[C@H](C(=O)N[C@@H](Cc1ccc(O)cc1)C(N)=O)[C@@H](C)O)C(C)C)[C@@H](C)O [Example 46, N-alpha-[(S)-4-Carboxy-4-(17-carboxyheptadecanoylamino)butyryl]-[Glu14,His17]-pramlintide] ({C18 diacid-γGlu}-KCNTATCATQRLAEFLHHSSNNFGPILPPTNVGSNTY-NH2; disulfide 2-7 (inferred); C-terminus assumed) | 48.2 | 48.2
3 | CC[C@H](C)[C@H](NC(=O)[C@@H]1CCCN1C(=O)CNC(=O)[C@H](Cc1ccccc1)NC(=O)[C@H](CC(N)=O)NC(=O)[C@H](CC(N)=O)NC(=O)[C@H](CO)NC(=O)[C@H](CO)NC(=O)[C@H](Cc1c[nH]cn1)NC(=O)[C@H](CCCNC(=N)N)NC(=O)[C@H](CC(C)C)NC(=O)[C@H](Cc1ccccc1)NC(=O)[C@H](CCC(=O)O)NC(=O)[C@H](C)NC(=O)[C@H](CC(C)C)NC(=O)[C@H](CCCNC(=N)N)NC(=O)[C@H](CCC(N)=O)NC(=O)[C@@H](NC(=O)[C@H](C)NC(=O)[C@@H]1CSSC[C@H](NC(=O)[C@H](Cc2c[nH]cn2)NC(=O)CNC(=O)CC[C@H](NC(=O)CCCCCCCCCCCCCCCCCCC(=O)O)C(=O)O)C(=O)N[C@@H](CC(N)=O)C(=O)N[C@@H]([C@@H](C)O)C(=O)N[C@@H](C)C(=O)N[C@@H]([C@@H](C)O)C(=O)N1)[C@@H](C)O)C(=O)N[C@@H](CC(C)C)C(=O)N1CCC[C@H]1C(=O)N1CCC[C@H]1C(=O)N[C@H](C(=O)N[C@@H](CC(N)=O)C(=O)N[C@H](C(=O)NCC(=O)N[C@@H](CO)C(=O)N[C@@H](CC(N)=O)C(=O)N[C@H](C(=O)N1CCC[C@H]1C(N)=O)[C@@H](C)O)C(C)C)[C@@H](C)O [Example 89, N-alpha-[(S)-4-Carboxy-4-(19-carboxynonadecanoylamino)butyryl]-Gly-[His1,Glu14,Arg17,Pro37]-pramlintide] ({C20 diacid-γGlu}-GHCNTATCATQRLAEFLRHSSNNFGPILPPTNVGSNTP-NH2; disulfide 3-8 (inferred)) | 91 | 91
4 | CC[C@H](C)[C@H](NC(=O)[C@@H]1CCCN1C(=O)CNC(=O)[C@H](Cc1ccccc1)NC(=O)[C@H](CC(N)=O)NC(=O)[C@H](CC(N)=O)NC(=O)[C@H](CO)NC(=O)[C@H](CO)NC(=O)[C@H](CCCNC(=N)N)NC(=O)[C@H](Cc1c[nH]cn1)NC(=O)[C@H](CC(C)C)NC(=O)[C@H](Cc1ccccc1)NC(=O)[C@H](CCC(=O)O)NC(=O)[C@H](C)NC(=O)[C@H](CC(C)C)NC(=O)[C@H](CCCNC(=N)N)NC(=O)[C@H](CCC(N)=O)NC(=O)[C@@H](NC(=O)[C@H](C)NC(=O)[C@@H]1CSSC[C@H](NC(=O)[C@H](Cc2c[nH]cn2)NC(=O)CC[C@H](NC(=O)CCCCCCCCCCCCCCCCCCC(=O)O)C(=O)O)C(=O)N[C@@H](CC(N)=O)C(=O)N[C@@H]([C@@H](C)O)C(=O)N[C@@H](C)C(=O)N[C@@H]([C@@H](C)O)C(=O)N1)[C@@H](C)O)C(=O)N[C@@H](CC(C)C)C(=O)N1CCC[C@H]1C(=O)N1CCC[C@H]1C(=O)N[C@H](C(=O)N[C@@H](CC(N)=O)C(=O)N[C@H](C(=O)NCC(=O)N[C@@H](CO)C(=O)N[C@@H](CC(N)=O)C(=O)N[C@H](C(=O)N[C@@H](Cc1ccc(O)cc1)C(N)=O)[C@@H](C)O)C(C)C)[C@@H](C)O [Example 1, N-alpha-[(S)-4-Carboxy-4-(19-carboxynonadecanoylamino)butyryl]-[His1,Glu14,His17,Arg18]-pramlintide] ({C20 diacid-γGlu}-HCNTATCATQRLAEFLHRSSNNFGPILPPTNVGSNTY-NH2; disulfide 2-7 (inferred)) | – | 0
